In all, about 310,000 compounds went through this assay and about 18,000 (5.8%) were called active. Inconclusive results, whose numbers are uncertain, are shown with a selection of clear calls. Calls come from the whole dose curve; as a rule, active = well fitted inhibition curve with a large enough effect; inconclusive = small, poorly fitted or top-dose-only effect, or another doubt; inactive = no such curve, though single readings can be large or run the other way. Potencies of inconclusive entries are left out as doubtful fits.
Experiment: Primary qHTS for delayed death inhibitors of the malarial parasite plastid, 48 hour incubation
Details: P. falciparum luciferase growth in erythrocytes; series mostly up to 28.7 µM; activity change, negative = inhibition: at the top concentration
How it was run: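 Luciferase-expressing P. falciparum in infected erythrocytes (2% hematocrit, 0.1% parasitemia final) in RPMI 1640/0.5% Albumax were exposed to compound for 48 hours at 37 C, 5% CO2; growth read as luminescence.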
% is set by controls: 0 for no effect and ±100 for the full control effect; potency is the fitted concentration of half-maximal effect; tags give direction and shape of the fitted curve.

Row | SMILES | Potency | activity change, negative = inhibition
1 | O=C(Nc1cccc(NC(=O)c2ccccc2Cl)c1)c1ccc([N+](=O)[O-])o1 | inconclusive [inhibitor, partial curve] | 
2 | O=C1CC2(CCN(S(=O)(=O)c3ccccc3F)CC2)Oc2ccccc21 |  | inactive: -10.1%
3 | COc1ccccc1NC(=O)C(=O)NCC(c1ccco1)N1CCc2ccccc21 (centres undefined) | active: 11.7 µM | 
4 | O=C(NCc1ccc(Cl)cc1)c1cc2c(s1)CS(=O)(=O)C2 |  | inactive: 14.2%
5 | CCOc1ccc(NC(=O)c2cccc(OC(=S)N3CCOCC3)c2)cc1 | inconclusive [inhibitor, single point] | 
6 | Cc1ccc(NC(=O)CN2CCC(C(=O)c3ccc(F)cc3)CC2)cc1 | inconclusive [inhibitor, single point] | 
7 | CCCC(NC(=O)C(C)Sc1nnnn1C1CC1)c1ccccc1 (centres undefined) |  | inactive: -6.53%
8 | CC(=O)Nc1cccc(C(=O)/C=C/c2ccc(Br)cc2)c1 | inconclusive [inhibitor, partial curve, poor fit] | 
9 | O=[N+]([O-])c1ccc(Cl)c(/C=N/NC(=S)Nc2ccccc2)c1 | inconclusive [inhibitor, partial curve, poor fit] | 
10 | O=c1[nH]c(/C(Cl)=C/c2cccc(F)c2)nc2cc(C(F)(F)F)ccc12 |  | inactive: 14.6%
11 | CC(=O)NCc1ccc(S(=O)(=O)N2CCN(S(=O)(=O)c3ccc4ccccc4c3)CC2)cc1 |  | inactive: 4.7%
12 | CCOC(=O)CN1C(=O)S/C(=C/c2cccc([N+](=O)[O-])c2O)C1=O | inconclusive [inhibitor, single point] | 
13 | COc1cc(C(=O)N2CCC(n3c(C)nc4cc(F)ccc43)CC2)cc(OC)c1OC | inconclusive [inhibitor, partial curve] | 
14 | CN(C(=O)COC(=O)c1cncc(Br)c1)C1CCS(=O)(=O)C1 (centres undefined) | inconclusive [inhibitor, partial curve, poor fit] | 
15 | CC(Nc1nc(-c2ccccc2)nc2ccccc12)c1ccccc1 (centres undefined) | inconclusive [inhibitor, single point] | 
16 | CN(C)c1cc(-c2ccc(F)cc2)oc(=O)c1Cl | inconclusive [inhibitor, partial curve] | 
17 | O=S(=O)(N/N=C/c1ccc(N2CCOCC2)cc1)c1ccccc1 | inconclusive [inhibitor, partial curve] | 
18 | CC(C)n1c(NCc2ccc(N(C)C)cc2)nc2ccccc21 |  | inactive: 19.3%
19 | Cc1cccc(N=C2NN=C(c3c(C)[nH]c4ccccc34)CS2)c1 | active: 2.62 µM | 
20 | O=C(CCS(=O)(=O)c1ccccc1)Nc1ccccc1N1CCOCC1 |  | inactive: 27%
21 | Cn1c(N)c(S(=O)(=O)N2CCN(c3ccccc3F)CC2)c(=O)n(C)c1=O |  | inactive: -9.36%
22 | Cc1ccc(/C=C/S(=O)(=O)Nc2ccc(C)cc2)cc1 | inconclusive [inhibitor, single point] | 
23 | COc1ccc(C2CC(c3ccccc3)=NN2C(=O)COC(=O)CNC(=O)c2ccccc2)cc1 (centres undefined) |  | inactive: 3.02%

Row | SMILES | Potency | activity change, negative = inhibition
24 | CCOc1ccccc1CN1CCNC(=O)C1CC(=O)N(C)CCc1ccccn1 (centres undefined) |  | inactive: -4.23%
25 | N=c1sccn1CC(=O)Nc1cc(Cl)ccc1[N+](=O)[O-] | inconclusive [inhibitor, partial curve, poor fit] | 
26 | CN1CCN(Cc2c(O)ccc3occ(C(=O)c4ccccc4)c23)CC1 | inconclusive [inhibitor, full curve] | 
27 | CCN(CC)c1nc(-c2ccc(Cl)cc2)cc(C(F)(F)F)c1C#N | inconclusive [inhibitor, single point] | 
28 | O=C(Nc1ccccc1)Nc1ccccc1C(=O)NCCCN1CCOCC1 | inconclusive [inhibitor, full curve, poor fit] | 
29 | CC[C@@H](C)C(N)c1cn([C@@H](CCC(=O)O)C(=O)N2CCNCC2)nn1 (some centres undefined) |  | inactive: 9.57%
30 | COCc1c(C#N)c(NCCc2ccc(F)cc2)nc(C)c1[N+](=O)[O-] | inconclusive [inhibitor, single point] | 
31 | OC1CCCCC1Sc1nc2ccccc2s1 (centres undefined) |  | inactive: 115%
32 | C=CCOCCN(C)C1=NS(=O)(=O)c2cc([N+](=O)[O-])ccc21 | inconclusive [inhibitor, single point] | 
33 | COc1ccc(/C=N/n2cnnc2SCc2ccccc2)cc1 | inconclusive [inhibitor, single point] | 
34 | COc1ccc2nc(NC3=NCCN3)sc2c1 |  | inactive: 323%
35 | Cn1c(=O)c2c(nc(OCc3cccnc3)n2Cc2ccccc2)n(C)c1=O | inconclusive [inhibitor, partial curve, poor fit] | 
36 | O=C(NCCOc1ccccc1F)C1CCC(=O)N(CCc2cccc(F)c2)C1 (centres undefined) | inconclusive [inhibitor, partial curve, poor fit] | 
37 | CCOC(=O)c1sc2nc(C)c([N+](=O)[O-])c(COC)c2c1N | active: 10.4 µM | 
38 | COc1ccccc1CNC(=O)c1ccc(CS(=O)(=O)c2ccccc2OC)o1 | inconclusive [inhibitor, partial curve, poor fit] | 
39 | CN(C)S(=O)(=O)c1ccc(Cl)c(NC(=O)COC(=O)c2ccc3c(c2)NC(=O)CS3)c1 | inconclusive [inhibitor, full curve, poor fit] | 
40 | COc1ccc(C2Nc3ccccc3C(=O)N2c2ccc(C)cc2)cc1Cn1nc(C)c([N+](=O)[O-])c1C (centres undefined) | inconclusive [inhibitor, full curve, poor fit] | 
41 | COc1ccc(CNC(=O)c2cc(-c3cc(C)ccc3O)n[nH]2)cc1 | inconclusive [inhibitor, single point] | 
42 | COc1ccc(CN(C)CC(=O)NC(=O)NC2CCCCC2)cc1 |  | inactive: -26.6%
43 | COc1cc(C(=O)OC(C)C(=O)Nc2ccc3c(c2)OCO3)ccc1OCc1c(C)noc1C (centres undefined) | inconclusive [inhibitor, single point] | 
44 | O=C(N/N=C/c1ccccc1F)c1ccc(COc2ccccc2Cl)o1 |  | inactive: -4.16%
45 | O=C(CC12CC3CC(CC(C3)C1)C2)N/N=C/c1ccncc1 | inconclusive [inhibitor, partial curve, poor fit] | 
46 | CC1(C)NC(=O)N(CC(=O)N2CCN(S(=O)(=O)c3ccccc3C(F)(F)F)CC2)C1=O | inconclusive [inhibitor, single point] | 

Row | SMILES | Potency | activity change, negative = inhibition
47 | Clc1ccc2c(NCc3ccccc3)ccnc2c1 | inconclusive [inhibitor, full curve] | 
48 | COC(=O)C1=CN(c2ccc(OC)cc2)C=C(C(=O)OC)C1c1ccc(C)c([N+](=O)[O-])c1 | active: 13.1 µM | 
49 | CN(CC(=O)Nc1cccc(F)c1)C(=O)CN1C(=O)NC2(CCCC2)C1=O |  | inactive: 3.18%
50 | CCNC(=O)CC1SC(=Nc2cccc(Cl)c2C)N(C)C1=O (centres undefined) | inconclusive [inhibitor, single point] | 
51 | O=C(CCn1ccnc1)Nc1ccc2ccccc2c1 | inconclusive [inhibitor, single point] | 
52 | COCCNc1nc2nonc2nc1N1C[C@H]2CC[C@H]1C2 |  | inactive: 11.7%
53 | Cc1cc(C)c2nc(NNC(=O)c3ccc(S(=O)(=O)N4CC(C)CC(C)C4)cc3)sc2c1 (centres undefined) | active: 2.62 µM | 
54 | CCCOc1ccc(C(=O)NCCCn2ccnc2)cc1 | inconclusive [inhibitor, single point] | 
55 | CC(C)c1ccc(-c2nc(N3CCCC3)nc3n[nH]c(N)c23)cc1 | inconclusive [inhibitor, single point] | 
56 | CC(C)(C)n1nnnc1C(c1ccc2ncccc2c1)N1CCSCC1 (centres undefined) | active: 9.28 µM | 
57 | Cc1ccc(C)c(NC(=O)CSc2nnc(-c3cc(C)[nH]n3)n2N)c1 | inconclusive [inhibitor, single point] | 
58 | Cc1cc(C)cc(-c2nnc(SCC(=O)NC3CC3)o2)c1 | inconclusive [inhibitor, single point] | 
59 | O=C1/C(=C/c2ccc(F)cc2)Oc2cc(OC(=O)N3CCOCC3)ccc21 | inconclusive [inhibitor, full curve, poor fit] | 
60 | C/C(=N\OCc1nc2ccccc2c(=O)n1/N=C/c1cc(C)cc([N+](=O)[O-])c1O)c1ccccc1 | active: 6.57 µM | 
61 | O=c1c(Cc2ccccc2)c(O)nc2n1CCS2 | inconclusive [inhibitor, single point] | 
62 | COc1ccc(NC(=O)CCc2nnc3ccc(N4CCN(c5cccc(OC)c5)CC4)nn23)cc1 | active: 11.7 µM | 
63 | CC(C)(C)[C@H]1C=C(C(=O)N2CCN(Cc3ccccc3)CC2)O[C@@H](OCc2ccc(CO)cc2)C1 | inconclusive [inhibitor, partial curve, poor fit] | 
64 | CCOC(=O)N1CCC(N(CCCOC)C(=O)Nc2cccc(OC)c2)CC1 | inconclusive [inhibitor, single point] | 
65 | COc1ccccc1N(CC(=O)Nc1ccccc1)S(=O)(=O)c1cccs1 | inconclusive [inhibitor, single point] | 
66 | CC(=O)N/N=C(\C)c1cccc(NC(=O)c2cccs2)c1 |  | inactive: 18.3%
67 | CC1(C)OC(c2ccccc2)=C/C(=C/C=Nc2ccccc2)O1 | inconclusive [inhibitor, single point] | 
68 | CCCCN(C(=O)c1cccc(S(=O)(=O)N2CC(C)OC(C)C2)c1)c1c(N)n(CC(C)C)c(=O)[nH]c1=O (centres undefined) |  | inactive: 8.43%
69 | CCOc1ccc(C2Nc3ccccc3NC3=C2C(=O)CC(C)(C)C3)cc1OC (centres undefined) | inconclusive [inhibitor, full curve, poor fit] | 

— PubChem BioAssay AID504832 (National Center for Advancing Translational Sciences (NCATS), 2011)
